The other results are listed elsewhere or left out.
These molecules were tested on T1, C. trachomatis L2/434/Bu expressing GFP (CTL2-GFP). Details: total inclusion area; 28.5 h, 10 µM; inhibitor.
T1 construct: L2/434/Bu GFP intracellular growth in HeLa cells
Parameters: species or system HeLa; C. trachomatis total inclusion area by high-content imaging, normalised to DMSO
In short: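 Bulk GFP and resorufin signals were read first. Wells were then fixed, stained with Hoechst and imaged to detect GFP inclusions and host nuclei. MICs followed the previously described calculation.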

Compound	% of control remaining
CCC(CN1CCN(C)CC1)NC(=O)Cc1coc2cc(C)ccc12 (stereo not shown) [CBK282790]	85.5206
CCCNc1nc(Cl)nc(NCc2cccnc2)n1 [CBK261995]	97.6796
O=C(CN1CCOCC1)N1CCN(C(=O)c2ccc(Cl)cc2Cl)CC1 [CBK028992]	100.199
Cc1cc(/C=C2/NC(=O)NC2=O)c(C)n1-c1ccc(S(N)(=O)=O)cc1 [CBK264747]	111.429
CNS(=O)(=O)c1cc(C(=O)N2CCN(c3ccccc3)CC2)ccc1OC [CBK270192]	91.75
N#CCSC1=CC(=O)CC(c2ccccc2)S1 (stereo not shown) [CBK008460]	29.6059
CC(C)NC(=O)c1sc2ccccc2c1C1CCN(C(=O)COc2ccccc2)C1 (stereo not shown) [CBK285875]	113.545
Cc1cc(C)n2nc(C(=O)N3CCCC34CC=CC4)cc2n1 [CBK282815]	84.7604
O=C(O)CNC(=O)CN1C(=O)c2cc(Cl)c(Cl)cc2C1=O [CBK287156]	91.0321
O=C(O)c1cccc(-c2nc(-c3ccc(S(=O)(=O)N4CCOCC4)cc3)cs2)c1 [CBK297730]	76.4407
CCc1cc(C(=O)OC)c(NC(=O)C2C3C=CC(C3)C2C(=O)O)s1 (stereo not shown) [CBK270315]	88.2026
O=C(CSc1nnc(-c2ccncc2)n1-c1ccccc1)N/N=C/c1coc2ccccc2c1=O [CBK262866]	94.0036
Cc1nc2cc(C(=O)NCC(C)(C)N3CCCCC3)ccc2n1C [CBK281862]	133.872
COCC1CCN(c2c(F)cc(C#N)cc2F)CC1 [CBK306244]	43.2351
O=C1CCc2cc(S(=O)(=O)NC(c3ccccc3)c3ccccc3)cc3c2N1CCC3 [CBK294418]	100.487
CCn1nc(C)cc1C(=O)N1Cc2cnn(Cc3ccc(F)cc3)c2C1 [CBK306574]	74.9919
OCC1CCCN1c1nccnc1-c1ccoc1 (stereo not shown) [CBK089057]	134.021
O=C(O)CC(C(=O)Nc1ccccc1)N1CCOCC1 (stereo not shown) [CBK287182]	91.6546
O=C1Nc2ccccc2C12CC(c1ccccc1Cl)=NN2 (stereo not shown) [CBK288004]	64.321
Cc1cc(S(=O)(=O)NCCCn2ccnc2)c(C)cc1Br [CBK269525]	90.6581
Cc1ccc([N+](=O)[O-])cc1S(=O)(=O)NCC(=O)O [CBK266234]	123.431

Compound	% of control remaining
CN(C)CC(O)CN1C(=O)NC(C)(C)C1=O (stereo not shown) [CBK027078]	67.6896
Clc1ccc(-c2ccc(N3CCN(CCN4CCCC4)CC3)nc2)cc1 [CBK037623]	102.31
Cc1ccc(Cl)c(OC(C)C(=O)N2CCC(CC(N)=O)CC2)c1 (stereo not shown) [CBK305762]	101.147
Cn1c(NCc2ccccn2)nc2ccccc21 [CBK268544]	111.448
CCCCCNC(=O)N1CCN(CC(=O)OCC)CC1 [CBK044786]	72.7635
O=C(N/N=C/C=N/NC(=O)c1ccccc1O)c1ccccc1O [CBK261430]	107.448
C=C(C)Cn1c(=O)c2c(nc3[nH]c(C)c(C)n32)n(C)c1=O [CBK288184]	77.2503
O=C(c1sc2cc(Cl)ccc2c1Cl)N1CCN(Cc2ccc3c(c2)OCO3)CC1 [CBK074431]	74.5871
CCC(CC)n1nc(C(=O)NC2(C#N)CCSC2)cc1C (stereo not shown) [CBK305111]	41.9725
N#Cc1ccc(-c2cnc(N)c(-c3ccccc3Cl)n2)cc1 [CBK113660]	116.401
c1ccc2c(c1)CCN2c1ncnc2[nH]cnc12 [CBK291104]	79.1139
Nc1nc2c([C@H]3C[C@@H](O)[C@@H](CO)O3)c[nH]c2c(=O)[nH]1 [CBK201194]	127.004
O=C1c2ccccc2C(=O)N1CN(CCc1ccc(Cl)cc1)CN1C(=O)c2ccccc2C1=O [CBK225934]	106.107
Cc1ccccc1-n1sc(=O)n(Cc2ccc(F)cc2)c1=O [CBK113605]	75.7438
CN(C)c1ccc(-c2nc(N(C)C)n(C)n2)cn1 [CBK306858]	86.7562
Cc1ccc2[nH]c(SCC(=O)NC3CCCC3)nc2c1 [CBK057983]	72.5324
COc1ccc(OC)c(S(=O)(=O)N2CCCC(C(=O)O)C2)c1 (stereo not shown) [CBK269225]	60.8852
O=C(CN1CCC(c2ccccc2F)CC1)Nc1nccs1 [CBK283579]	69.9058
C=Cn1ncc(CN(CCCN(C)C)Cc2ccco2)c1C [CBK283228]	89.2453
CS(=O)(=O)N1CC2(CCN(CC(N)=O)CC2)c2ccccc21 [CBK126678]	81.3361
COC(=O)c1cc(C(=O)CSc2nc(N)cc(O)n2)ccc1O [CBK110407]	73.3775

Compound	% of control remaining
Cc1cc2c(cc1C)C(=O)CC1(CCN(C(=O)c3ccco3)CC1)O2 [CBK282819]	81.0835
CN1C(=O)COc2ccccc2CCCC[C@@H]2[C@H]1CCCN2CC(N)=O [CBK292098]	100.459
Cn1cc(CC(=O)NCc2ccccc2)c2ccccc21 [CBK200200]	91.0889
O=C1CC(C(=O)Nc2ncccn2)C(c2ccccc2)O1 (stereo not shown) [CBK265130]	91.8346
CC(=O)Nc1ccc(S(=O)(=O)N(c2ccc(C(C)(C)C)cc2)C2CCNCC2)cc1 [CBK165062T]	71.2743
COc1cc(CN2CCC[C@@H]2CN2CCCC2)cc(OC)c1OC [CBK149100]	108.627
N#CCCCN1CCC(Oc2nccnc2OCc2ccc(Cl)cc2Cl)CC1 [CBK161568]	78.6809
CC1(C)CC(=O)c2sc(NC(=O)c3cccc(N4C(=O)CCC4=O)c3)nc2C1 [CBK287565]	79.8395
CC1CCN(Cc2c(-c3cccnc3)[nH]c3cccnc23)CC1 [CBK281494]	88.9482
O=c1c2c3c(sc2ncn1CC(O)CO)CCCC3 (stereo not shown) [CBK269448]	68.815
Cc1cc(C)c(CNC(=O)N(C)C(C)c2ccncn2)cn1 (stereo not shown) [CBK307192]	90.2145
COC(=O)CC(NC(=O)c1cccc(NC(C)=O)c1)c1cccs1 (stereo not shown) [CBK304537]	71.1361
Cc1csc(C(Cc2ccsc2)NC(=O)C2CC3C=CC2O3)n1 (stereo not shown) [CBK285108]	86.6887
C=Cn1cc(CN2CCCN(Cc3cccc(F)c3)CC2)c(C)n1 [CBK282594]	106.683
O=C(Nc1cc(Cl)ccc1Cl)C1CN(S(=O)(=O)c2ccccc2)CCN1S(=O)(=O)c1ccccc1 (stereo not shown) [CBK267004]	94.8979
O=C(Nc1ccccc1N1CCNCC1)c1cccs1 [CBK029443T]	80.1913
Cc1ccc(S(=O)(=O)Cc2ccc(C(=O)Nc3cccc(-c4cnc5ccccc5n4)c3)cc2)cc1 [CBK268589]	108.535
Cc1ccc2c(c1)C(C[C@H]1CN(C(=O)c3ccco3)CC[C@H]1CC(=O)O)=NCC2 [CBK289162]	96.4135
Cn1nc(C2CCN(C(=O)c3cccc(F)c3)CC2)c2cccnc21 [CBK284898]	100.46
c1ccc(-c2nc(N3CCOCC3)n3ccccc23)cc1 [CBK014407]	107.27
CCc1nc2cc(NC(=O)c3cc(C4CC4)nn3C)ccc2n1C [CBK283275]	77.2603

Compound	% of control remaining
O=C(Nc1ccccn1)c1nccnc1-c1ccc(COc2ccccc2)cc1 [CBK050835]	93.0445
CC1=NN(C(=O)CSCc2ccccc2)C(O)(c2ccc(Cl)cc2)C1 (stereo not shown) [CBK267136]	92.1872
O=C1NC2=C(C(=O)N(CCN3CCCC3)C2)C(c2cccc(F)c2)N1 (stereo not shown) [CBK282365]	67.567
COc1cccc(CCNC(=O)CCN2C(=O)CCC2=O)c1 [CBK023150]	28.1208
Cn1cnnc1CCC(=O)NCC1CCN(c2ccccc2F)C1 (stereo not shown) [CBK307587]	58.9233
CCc1nc2c(OCCOC)cccn2c1N(CCOC)C(C)=O [CBK147845]	117.069
Cc1nc(S(=O)(=O)CC2CCCO2)n(CC(C)C)c1C (stereo not shown) [CBK304882]	72.7236
COC(=O)c1cc(OC)c(OC)cc1NC(=O)C1CCC1C(=O)O (stereo not shown) [CBK057084]	105.105
OCCc1ccc(Oc2ncc(C(F)(F)F)cc2Cl)cc1 [CBK161643]	106.475
CC(Cc1cccs1)NC(=O)C(C)Cn1cccn1 (stereo not shown) [CBK283250]	113.19
Cc1ccc(-c2nnc(CNC(=O)Cc3ccccc3F)o2)s1 [CBK284644]	108.603
CS(=O)(=O)c1ccc(-c2cccc(COC3CCN(C(=O)Cc4ccc(Cl)cc4)CC3)c2)cc1 [CBK149504]	72.9157
CC(=O)Nc1n[nH]c(SCCc2ccccc2)n1 [CBK262514]	105.094
CC(C)(C)NC(=O)Cn1ccc2ccnc(-c3cccs3)c21 [CBK284737]	116.073
CCC(C)NC(=O)Cn1cccc2cc(C3CCNCC3)nc1-2 (stereo not shown) [CBK284681]	100.611
Fc1cc(Br)ccc1-c1cn(-c2ccc3[nH]ccc3c2)nn1 [CBK113146]	50.2147
O=C(NCCN1CCOCC1)N(c1ccccc1)c1ccccc1 [CBK270057]	109.569
O=c1[nH]c(/C=C/c2cc(Br)ccc2OCc2cccc3ccccc23)c([N+](=O)[O-])c(=O)[nH]1 [CBK268052]	75.8741
Cc1ccc2[nH]c(Cc3ccc(NC(=O)CCc4nc5ccccc5[nH]4)cc3)nc2c1 [CBK285801]	126.286
